Source: PubChem BioAssay AID1347055 (National Center for Advancing Translational Sciences (NCATS), 2019)
Where “and” joins values, the source holds several entries; their conditions need not be identical. Identical values can stand only once. Hit rate of the full screen: of about 54,000 compounds, about 120 (0.22%) were called active. The shares of active, inactive and inconclusive entries below differ from those in the screen. Calls follow the shape of the dose curve; as a rule, active = well fitted inhibition curve with a large enough effect; inconclusive = small, poorly fitted or top-dose-only effect, or effect the other way; inactive = flat fitted curve, though single readings scatter. Potencies of inconclusive entries are doubtful fits and often do not repeat.
% is scaled to controls: 0 for no effect and ±100 for the full control effect; potency is read from the fitted curve at half-maximal effect; tags tell the direction and shape of the fitted curve.
Also: the screen sought activators but most active calls are inhibition curves; nearly all actives have a fitted effect of over 45% in size.

The molecules below were run against Fumarate hydratase, mitochondrial (Homo sapiens) (UniProt P07954) (assay: Identification of activators of human fumarate hydratase by quantitative high-throughput screening). Settings: FH coupled MDH/diaphorase resazurin fluorescence, 15 min; activity change, negative = inhibition: at 79.9 µM (top of the series).
Sequence of UniProt P07954 (P07954 whole entry, looked up): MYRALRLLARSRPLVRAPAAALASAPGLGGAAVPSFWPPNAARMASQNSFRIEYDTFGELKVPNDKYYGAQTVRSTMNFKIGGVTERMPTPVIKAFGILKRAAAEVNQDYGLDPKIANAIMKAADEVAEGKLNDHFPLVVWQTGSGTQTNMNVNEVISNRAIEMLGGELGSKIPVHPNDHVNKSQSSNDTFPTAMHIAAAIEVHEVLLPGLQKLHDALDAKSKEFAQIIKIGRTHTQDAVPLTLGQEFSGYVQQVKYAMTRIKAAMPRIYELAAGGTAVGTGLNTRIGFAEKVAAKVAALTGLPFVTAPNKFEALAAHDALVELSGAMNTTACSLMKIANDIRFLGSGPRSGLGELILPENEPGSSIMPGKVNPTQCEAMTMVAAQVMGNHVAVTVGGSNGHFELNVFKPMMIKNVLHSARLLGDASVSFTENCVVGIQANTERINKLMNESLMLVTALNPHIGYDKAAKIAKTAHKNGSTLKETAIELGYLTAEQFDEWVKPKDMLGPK
In the case of `Cc1ccc(-c2nc(S(=O)(=O)c3ccc(Cl)cc3)c(N3CCCCC3)o2)cc1`, the Potency is reported as inconclusive: 28.2 µM [inhibitor, partial curve, poor fit].
`N#C/C(=C\c1ccc(O)c(O)c1)C(=O)c1ccc(O)c(O)c1` was tested, and the Potency was inconclusive: 20 µM [inhibitor, partial curve, poor fit].
For `Cc1ccc(Cl)cc1N1CCN(C(=O)c2cccn2-c2nnc(N3CCCCC3)s2)CC1`, the Potency was inconclusive: 20 µM [inhibitor, partial curve, poor fit].
In the case of `Cn1ncc(Cl)c1-c1cc(C(=O)N[C@H](CN)Cc2cccc(F)c2)sc1Cl`, the Potency is reported as “inactive”.
`COc1cc(OC)c(NC(=O)c2cc(C(C)=O)n3ccccc23)cc1Cl` was tested, and the Potency was inconclusive: 31.6 µM [inhibitor, partial curve, poor fit].
For `CC(=O)Nc1ccc(NS(=O)(=O)c2cc(Br)cc3c2N(C(=O)C2CC2)CC3)cc1`, the Potency was inconclusive: 28.2 µM [inhibitor, single point].
In the case of `COc1ccc(NC(=O)c2cnn(-c3ccc(F)cc3F)c2C2CCN(C(=O)OC(C)(C)C)CC2)cc1Cl`, the Potency is reported as inconclusive: 15.8 µM [inhibitor, partial curve].
In the case of `COc1ccc(-c2oc3ncn4nc(COc5ccc(C)cc5)nc4c3c2-c2ccc(OC)cc2)cc1`, the Potency is reported as inconclusive: 39.8 µM [inhibitor, partial curve, poor fit].
With `COc1ccc(Cc2ccc(NC(N)=O)cc2)cc1-c1cccc(Cl)c1` the Potency was inconclusive: 50.1 µM [inhibitor, single point].
In the case of `O=C(COc1ccc(Cl)cc1)NC1CCC(NC(=O)COc2ccc(Cl)cc2)CC1` (centres undefined), the Potency is reported as “inactive”.
In the case of `COc1cc2ncnc(Oc3cccc(NC(=O)Nc4cc(C(C)(C)C(F)(F)F)on4)c3)c2cc1OC`, the Potency is reported as inconclusive: 35.5 µM [inhibitor, partial curve, poor fit].
`O=c1c(O)c(-c2ccc(O)c(O)c2)oc2cc(O)ccc12` was tested, and the Potency was inconclusive: 31.6 µM [activator, single point] and active: 27.3 µM [activator].
In the case of `COc1cc(OC)c(NC(=O)C(c2ccccc2)N2Cc3ccccc3C2=O)cc1Cl` (centres undefined), the activity change, negative = inhibition is reported as inconclusive: -32.9% [inhibitor].
In the case of `CCCCOc1ccc(C(=O)N2CC(=O)Nc3ccc(Br)cc3C2c2ccc(F)cc2)cc1` (centres undefined), the Potency is reported as inconclusive: 31.6 µM [inhibitor, single point].
In the case of `Cc1nc2ccccc2n1CCc1nc2c3ccccc3nc(SCC(=O)Nc3cccc(C(F)(F)F)c3)n2n1`, the Potency is reported as inconclusive: 31.6 µM [inhibitor, single point].
In the case of `CCOC(=O)c1cc(C)n(CC2CCC(C(=O)Nc3cccc(Cl)c3)CC2)c1C` (centres undefined), the Potency is reported as “inactive”.
`CCn1c(=O)c2cc(C(=O)NCCCN3CCN(c4ccc(F)cc4)CC3)sc2c2ccccc21` was tested, and the Potency was inconclusive: 25.1 µM [inhibitor, partial curve].
For `CCCc1ccc(S(=O)(=O)N2CCC(c3nnc(-c4cccc(C)c4)o3)CC2)cc1`, the Potency was inconclusive: 8.91 µM [inhibitor, partial curve].
`CCOc1ccc(Br)cc1C1C(C(=O)OC)=C(C)NC2=C1C(=O)c1ccccc12` (centres undefined) was tested, and the Potency was inconclusive: 3.16 µM [inhibitor, single point].
For `COc1ccc(OC)c(C2Nc3c(C)cc(C)cc3-c3cc(C)nn32)c1` (centres undefined), the Potency was inconclusive: 35.5 µM [inhibitor, single point].
For `C=C[C@]1(C)C[C@H](O)[C@@H]2[C@H](OC(=O)[C@@H]2C)C1/C(C)=C/O[C@@H]1O[C@H](CO)[C@@H](O)[C@H](O)[C@H]1O` (some centres undefined), the Potency was “inactive”.
In the case of `Cc1ccccc1C(=O)OCc1cc(=O)n2nc(C3CCCCC3)sc2n1`, the Potency is reported as inconclusive: 50.1 µM [activator, single point].
In the case of `CNC(=O)c1ccc(-c2cnc3ncc(Cc4ccc5ncccc5c4)n3n2)cc1F`, the Potency is reported as “inactive”.
With `Cc1ccc(C)c(N2CCN(S(=O)(=O)c3ccc(-c4cnc(C5CC5)o4)cc3)CC2)c1` the Potency was inconclusive: 22.4 µM [inhibitor, partial curve, poor fit].
For `COc1cc(Cl)c(C)cc1NC(=O)C1CCN(c2nc3ccccc3n3cccc23)CC1`, the Potency was “inactive”.
`CCn1nnc2c(N3CCOCC3)nc(-c3ccc(NC(=O)Nc4ccc(C(=O)N5CCN(C)CC5)cc4)cc3)nc21` was tested, and the Potency was inconclusive: 25.1 µM [inhibitor, single point].
`Oc1ccc(Cl)cc1Cc1cc(Cl)ccc1O` was tested, and the Potency was inconclusive: 27.6 µM [inhibitor, single point].
`O=C(Nc1nnc(S(=O)(=O)N2CCCc3ccccc32)s1)c1cccc(Cl)c1` was tested, and the Potency was “inactive”.
For `CC1CCCN(C(=O)CSc2c3c(nc4cc(Cl)ccc24)CCCC3)C1` (centres undefined), the Potency was inconclusive: 20 µM [inhibitor, partial curve, poor fit].
In the case of `CCc1ccc(NC(=O)N2CCOc3ccc(Cl)cc32)cc1`, the Potency is reported as inconclusive: 25.1 µM [inhibitor, partial curve, poor fit].
With `COc1cc(Cl)c(S(=O)(=O)NCCc2c(C)[nH]c3c(C)cccc23)cc1Cl` the Potency was inconclusive: 56.2 µM [inhibitor, single point].
For `Cc1ccc(C)c(N2CCN(S(=O)(=O)c3ccc4[nH]c5c(c4c3)CCCCC5)CC2)c1`, the Potency was inconclusive: 28.2 µM [inhibitor, single point].
With `COc1ccccc1C(=O)NCCn1cc(SCC(=O)Nc2ccccc2F)c2ccccc21` the Potency was “inactive”.
For `CCCCN(CC)C(=O)CSc1nc2n[nH]c(C)c2c(=N)n1-c1cccc(Cl)c1`, the Potency was inconclusive: 35.5 µM [inhibitor, partial curve, poor fit].
`CC1=Nc2cc(C(=O)NCc3ccccc3Cl)ccc2Sc2c(C)ccc(C)c21` was tested, and the Potency was “inactive”.
In the case of `COc1ccc(-c2nnc(SCC(=O)NCCc3ccc(OC)c(OC)c3)nc2-c2ccc(OC)cc2)cc1`, the Potency is reported as inconclusive: 17.8 µM [inhibitor, partial curve, poor fit].
With `Cc1nc2c(-c3ccc(F)cc3)c(C)nn2c(C)c1CCC(=O)N1CCN(c2ccccc2)CC1` the Potency was inconclusive: 31.6 µM [inhibitor, partial curve, poor fit].
`Cn1cnc(-c2nccc3c(=O)[nH]c(OCCCC(F)(F)F)nc23)c1` was tested, and the Potency was inconclusive: 4.47 µM [activator, full curve].
With `COc1ccc(-c2nc(C)c(CCNS(=O)(=O)c3cc(Cl)ccc3Cl)s2)cc1` the Potency was inconclusive: 22.4 µM [inhibitor, partial curve].
`CCOc1ccc(CCNC(=O)c2cn(C)c3ccc(S(=O)(=O)N4CCCCC4)cc3c2=O)cc1OCC` was tested, and the Potency was inconclusive: 28.2 µM [inhibitor, partial curve, poor fit].
`COc1cc(C(=O)NS(=O)(=O)c2ccccc2C)ccc1Cc1cn(C)c2ccc(NC(=O)OC3CCCC3)cc12` was tested, and the Potency was “inactive”.
For `COc1ccc(CCNC(=O)CCCn2c(=O)c3ccccc3n(CC(=O)Nc3cc(Cl)ccc3C)c2=O)cc1OC`, the Potency was “inactive”.
In the case of `CCOC(=O)c1ccc(N2C(=O)c3n[nH]c(-c4ccco4)c3C2c2ccc(O)cc2)cc1` (centres undefined), the Potency is reported as inconclusive: 28.2 µM [inhibitor, single point].
With `CC1=C(C(=O)OC(C)C)C(c2cccc([N+](=O)[O-])c2)C(C(=O)OC2CN(C(c3ccccc3)c3ccccc3)C2)=C(N)N1` (centres undefined) the Potency was “inactive”.
With `Oc1ccc(/C=C/c2ccc(/C=C/c3ccc(O)cc3)c(Br)c2)cc1` the Potency was inconclusive: 22.4 µM [inhibitor, partial curve, poor fit].
In the case of `CCc1cc2c(=O)c(-c3nc4ccccc4s3)coc2c(CN2CCCCC2)c1O`, the Potency is reported as inconclusive: 18.5 µM [inhibitor, partial curve, poor fit].
With `CCOCCc1nn2c(=O)cc(COC(=O)c3ccccc3NC(=O)C3CCCCC3)nc2s1` the Potency was inconclusive: 28.2 µM [inhibitor, partial curve, poor fit].
In the case of `COc1cccc(-c2nc(SCC(=O)Nc3ccc4c(c3)OCCO4)c(-c3ccccc3)[nH]2)c1`, the Potency is reported as active: 39.8 µM.
In the case of `Cc1n[nH]c(C)c1S(=O)(=O)N(CC(=O)Nc1ccc(C(F)(F)F)cc1)c1ccc(C(C)C)cc1`, the Potency is reported as “inactive”.
`COC(=O)C1=COC(O[C@@H]2O[C@H](CO)[C@@H](O)[C@H](O)[C@H]2O)[C@@H]2[C@@](C)(O)[C@@H](OC(=O)/C=C/c3ccccc3)C[C@]12O` (some centres undefined) was tested, and the Potency was inconclusive: 1.04 µM [activator, full curve].
In the case of `COc1ccc(-c2cc(C(F)(F)F)nc(SCCC(=O)Nc3cc(C)ccc3O)n2)cc1`, the Potency is reported as inconclusive: 31.6 µM [inhibitor, partial curve, poor fit].
For `CC(C)OC(=O)OCOP(=O)(COC(C)Cn1cnc2c(N)ncnc21)OCOC(=O)OC(C)C` (centres undefined), the Potency was inconclusive: 31.6 µM [activator, single point].
`O=C(CCC1N=C2c3ccccc3N=C(SCc3ccc(F)cc3)N2C1=O)NCCc1ccccc1` (centres undefined) was tested, and the Potency was “inactive”.
With `COc1ccc(-n2c(-c3ccco3)nc3c(cnn3-c3ccc(Cl)cc3)c2=O)cc1` the Potency was “inactive”.
In the case of `COc1ccc(Cl)cc1NC(=O)C(C)Sc1nc2c(c(=O)[nH]1)CCCC2` (centres undefined), the Potency is reported as inconclusive: 15.8 µM [inhibitor, partial curve].
`O=C1NCN(c2ccccc2)C12CCN(CCCC(c1ccc(F)cc1)c1ccc(F)cc1)CC2` was tested, and the Potency was inconclusive: 31.6 µM [inhibitor, single point].
In the case of `Cc1ccccc1C(=O)N1CC(=O)Nc2ccc(Cl)cc2C1c1ccccc1` (centres undefined), the Potency is reported as “inactive”.
With `Cc1ccc(S(=O)(=O)c2nnn3c2nc(NC(C)C)c2cc(Cl)ccc23)cc1C` the Potency was “inactive”.
In the case of `CC1(C)N=C(SCc2ccccc2Cl)c2ccccc2N1`, the Potency is reported as inconclusive: 39.8 µM [inhibitor, single point].
